± gives the standard deviation of the averaged measurements. Restriction of a single-cycle SIVsab GFP reporter by TRIM5α v1-loop variants in CRFK cells. Human variants: read share among cells still uninfected after two challenges over input, higher = gained restriction. Rhesus variants: share among infected cells over input, higher = lost restriction. Reporter dose not given per row. No active / inactive call per row; the paper calls a change when both replicates lie above its controls (mean + 2 SD of stop or wild-type variants, or the top frameshift score). Residues outside the varied loop are taken from Swiss-Prot. The paper reads the human single-substitution scores as noise; they and the rhesus combinations repeat poorly (rank correlation 0.3 to 0.4), indel scores repeat only for the top variants, rhesus substitutions well (0.9).

In the supplement of paper PMC12230231 one finds enrichment data, which are given here for twelve sequences.

The series relates to SIVsab (simian immunodeficiency virus of sabaeus monkeys), single-cycle GFP reporter, in CRFK cells. The series can be described thus: enrichment among uninfected cells over input (fold); higher = stronger restriction. The following applies: library: insertions and deletions. The method, then: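 Pools of CRFK cells expressing variants of the TRIM5α v1 loop were challenged with the single-cycle reporter, sorted by GFP and sequenced; mean of two replicates.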
In the case of “MASGILVNVKEEVTCPICLELLTQPLSLDCGHSFCQACLTANHKKSMLDKGESSCPVCRISYQPENIRPNRHVANIVEKLREVKLSPEGQKVDHCARHGEKLLLFCQEDGKVICWLCERSQEHRGHHTFLTEEVAREYQVKLQAALEMLRQKQQEAEELEADIREEKASWKTQIQYDKTNVLADFEQLRDILDWEESNELQNLEKEEEDILKSLTNSETEMVQQTQSLRELISDLEHRLQGSVMELLQGVDGVIKRTENVTLKKPETFPKNQRRVFRAPDLKGMLEVFRELTDVRRYWVDVTVAPNNISCAVISEDKRQVSSPKPQIIRGTRYQTFVNFNYCTGILGSQSITSGKHYWEVDVSKKTAWILGVCAGFQPDAMCNIEKNENYQPKYGYWVIGLEEGVKCSAFQDSSFHTPSVPFIVPLSVIICPDRVGVFLDYEACTVSFFNITNHGFLIYKFSHCSFSQPVFPYLNPRKCGVPMTLCSPSS [human TRIM5α, 3-codon deletion at 329]”, the enrichment came to 1.17 ± 0.26.

In turn, “MASGILVNVKEEVTCPICLELLTQPLSLDCGHSFCQACLTANHKKSMLDKGESSCPVCRISYQPENIRPNRHVANIVEKLREVKLSPEGQKVDHCARHGEKLLLFCQEDGKVICWLCERSQEHRGHHTFLTEEVAREYQVKLQAALEMLRQKQQEAEELEADIREEKASWKTQIQYDKTNVLADFEQLRDILDWEESNELQNLEKEEEDILKSLTNSETEMVQQTQSLRELISDLEHRLQGSVMELLQGVDGVIKRTENVTLKKPETFPKNQRRVFRAPDLKGMLEVFRELTDVRRYWVDVTVAPNNISCAVISEDKRQVSSPKPQIIRYQTFVNFNYCTGILGSQSITSGKHYWEVDVSKKTAWILGVCAGFQPDAMCNIEKNENYQPKYGYWVIGLEEGVKCSAFQDSSFHTPSVPFIVPLSVIICPDRVGVFLDYEACTVSFFNITNHGFLIYKFSHCSFSQPVFPYLNPRKCGVPMTLCSPSS [human TRIM5α, 6-codon deletion at 329]” registered an enrichment of 0.688 ± 0.29. The figure for “MASGILVNVKEEVTCPICLELLTQPLSLDCGHSFCQACLTANHKKSMLDKGESSCPVCRISYQPENIRPNRHVANIVEKLREVKLSPEGQKVDHCARHGEKLLLFCQEDGKVICWLCERSQEHRGHHTFLTEEVAREYQVKLQAALEMLRQKQQEAEELEADIREEKASWKTQIQYDKTNVLADFEQLRDILDWEESNELQNLEKEEEDILKSLTNSETEMVQQTQSLRELISDLEHRLQGSVMELLQGVDGVIKRTENVTLKKPETFPKNQRRVFRAPDLKGMLEVFRELTDVRRYWVDVTVAPNNISCAVISEDKRQVSSPKPQIITFVNFNYCTGILGSQSITSGKHYWEVDVSKKTAWILGVCAGFQPDAMCNIEKNENYQPKYGYWVIGLEEGVKCSAFQDSSFHTPSVPFIVPLSVIICPDRVGVFLDYEACTVSFFNITNHGFLIYKFSHCSFSQPVFPYLNPRKCGVPMTLCSPSS [human TRIM5α, 9-codon deletion at 329]” is 0.905 ± 0.04; for “MASGILVNVKEEVTCPICLELLTQPLSLDCGHSFCQACLTANHKKSMLDKGESSCPVCRISYQPENIRPNRHVANIVEKLREVKLSPEGQKVDHCARHGEKLLLFCQEDGKVICWLCERSQEHRGHHTFLTEEVAREYQVKLQAALEMLRQKQQEAEELEADIREEKASWKTQIQYDKTNVLADFEQLRDILDWEESNELQNLEKEEEDILKSLTNSETEMVQQTQSLRELISDLEHRLQGSVMELLQGVDGVIKRTENVTLKKPETFPKNQRRVFRAPDLKGMLEVFRELTDVRRYWVDVTVAPNNISCAVISEDKRQVSSPKPQIITRYQTFVNFNYCTGILGSQSITSGKHYWEVDVSKKTAWILGVCAGFQPDAMCNIEKNENYQPKYGYWVIGLEEGVKCSAFQDSSFHTPSVPFIVPLSVIICPDRVGVFLDYEACTVSFFNITNHGFLIYKFSHCSFSQPVFPYLNPRKCGVPMTLCSPSS [human TRIM5α, 5-codon deletion at 329]” it is 1.15 ± 0.34. Then “MASGILVNVKEEVTCPICLELLTQPLSLDCGHSFCQACLTANHKKSMLDKGESSCPVCRISYQPENIRPNRHVANIVEKLREVKLSPEGQKVDHCARHGEKLLLFCQEDGKVICWLCERSQEHRGHHTFLTEEVAREYQVKLQAALEMLRQKQQEAEELEADIREEKASWKTQIQYDKTNVLADFEQLRDILDWEESNELQNLEKEEEDILKSLTNSETEMVQQTQSLRELISDLEHRLQGSVMELLQGVDGVIKRTENVTLKKPETFPKNQRRVFRAPDLKGMLEVFRELTDVRRYWVDVTVAPNNISCAVISEDKRQVSSPKPQIIYARGTRYQTFVNFNYCTGILGSQSITSGKHYWEVDVSKKTAWILGVCAGFQPDAMCNIEKNENYQPKYGYWVIGLEEGVKCSAFQDSSFHTPSVPFIVPLSVIICPDRVGVFLDYEACTVSFFNITNHGFLIYKFSHCSFSQPVFPYLNPRKCGVPMTLCSPSS [human TRIM5α, 1-codon deletion at 330]”, with 1.23 ± 1.1; and “MASGILVNVKEEVTCPICLELLTQPLSLDCGHSFCQACLTANHKKSMLDKGESSCPVCRISYQPENIRPNRHVANIVEKLREVKLSPEGQKVDHCARHGEKLLLFCQEDGKVICWLCERSQEHRGHHTFLTEEVAREYQVKLQAALEMLRQKQQEAEELEADIREEKASWKTQIQYDKTNVLADFEQLRDILDWEESNELQNLEKEEEDILKSLTNSETEMVQQTQSLRELISDLEHRLQGSVMELLQGVDGVIKRTENVTLKKPETFPKNQRRVFRAPDLKGMLEVFRELTDVRRYWVDVTVAPNNISCAVISEDKRQVSSPKPQIIYFVNFNYCTGILGSQSITSGKHYWEVDVSKKTAWILGVCAGFQPDAMCNIEKNENYQPKYGYWVIGLEEGVKCSAFQDSSFHTPSVPFIVPLSVIICPDRVGVFLDYEACTVSFFNITNHGFLIYKFSHCSFSQPVFPYLNPRKCGVPMTLCSPSS [human TRIM5α, 9-codon deletion at 330]”, with 0.919 ± 0.25; and “MASGILVNVKEEVTCPICLELLTQPLSLDCGHSFCQACLTANHKKSMLDKGESSCPVCRISYQPENIRPNRHVANIVEKLREVKLSPEGQKVDHCARHGEKLLLFCQEDGKVICWLCERSQEHRGHHTFLTEEVAREYQVKLQAALEMLRQKQQEAEELEADIREEKASWKTQIQYDKTNVLADFEQLRDILDWEESNELQNLEKEEEDILKSLTNSETEMVQQTQSLRELISDLEHRLQGSVMELLQGVDGVIKRTENVTLKKPETFPKNQRRVFRAPDLKGMLEVFRELTDVRRYWVDVTVAPNNISCAVISEDKRQVSSPKPQIIYGAARGTRYQTFVNFNYCTGILGSQSITSGKHYWEVDVSKKTAWILGVCAGFQPDAMCNIEKNENYQPKYGYWVIGLEEGVKCSAFQDSSFHTPSVPFIVPLSVIICPDRVGVFLDYEACTVSFFNITNHGFLIYKFSHCSFSQPVFPYLNPRKCGVPMTLCSPSS [human TRIM5α, 1-codon duplication at 331]”, with 0.3 ± 0.085. The figure for “MASGILVNVKEEVTCPICLELLTQPLSLDCGHSFCQACLTANHKKSMLDKGESSCPVCRISYQPENIRPNRHVANIVEKLREVKLSPEGQKVDHCARHGEKLLLFCQEDGKVICWLCERSQEHRGHHTFLTEEVAREYQVKLQAALEMLRQKQQEAEELEADIREEKASWKTQIQYDKTNVLADFEQLRDILDWEESNELQNLEKEEEDILKSLTNSETEMVQQTQSLRELISDLEHRLQGSVMELLQGVDGVIKRTENVTLKKPETFPKNQRRVFRAPDLKGMLEVFRELTDVRRYWVDVTVAPNNISCAVISEDKRQVSSPKPQIIYGAFVNFNYCTGILGSQSITSGKHYWEVDVSKKTAWILGVCAGFQPDAMCNIEKNENYQPKYGYWVIGLEEGVKCSAFQDSSFHTPSVPFIVPLSVIICPDRVGVFLDYEACTVSFFNITNHGFLIYKFSHCSFSQPVFPYLNPRKCGVPMTLCSPSS [human TRIM5α, 7-codon deletion at 332]” is 0.739 ± 0.86; for “MASGILVNVKEEVTCPICLELLTQPLSLDCGHSFCQACLTANHKKSMLDKGESSCPVCRISYQPENIRPNRHVANIVEKLREVKLSPEGQKVDHCARHGEKLLLFCQEDGKVICWLCERSQEHRGHHTFLTEEVAREYQVKLQAALEMLRQKQQEAEELEADIREEKASWKTQIQYDKTNVLADFEQLRDILDWEESNELQNLEKEEEDILKSLTNSETEMVQQTQSLRELISDLEHRLQGSVMELLQGVDGVIKRTENVTLKKPETFPKNQRRVFRAPDLKGMLEVFRELTDVRRYWVDVTVAPNNISCAVISEDKRQVSSPKPQIIYGAGARGTRYQTFVNFNYCTGILGSQSITSGKHYWEVDVSKKTAWILGVCAGFQPDAMCNIEKNENYQPKYGYWVIGLEEGVKCSAFQDSSFHTPSVPFIVPLSVIICPDRVGVFLDYEACTVSFFNITNHGFLIYKFSHCSFSQPVFPYLNPRKCGVPMTLCSPSS [human TRIM5α, 2-codon duplication at 330]” it is 0.369 ± 0.12. Regarding “MASGILVNVKEEVTCPICLELLTQPLSLDCGHSFCQACLTANHKKSMLDKGESSCPVCRISYQPENIRPNRHVANIVEKLREVKLSPEGQKVDHCARHGEKLLLFCQEDGKVICWLCERSQEHRGHHTFLTEEVAREYQVKLQAALEMLRQKQQEAEELEADIREEKASWKTQIQYDKTNVLADFEQLRDILDWEESNELQNLEKEEEDILKSLTNSETEMVQQTQSLRELISDLEHRLQGSVMELLQGVDGVIKRTENVTLKKPETFPKNQRRVFRAPDLKGMLEVFRELTDVRRYWVDVTVAPNNISCAVISEDKRQVSSPKPQIIYGAGTRYQTFVNFNYCTGILGSQSITSGKHYWEVDVSKKTAWILGVCAGFQPDAMCNIEKNENYQPKYGYWVIGLEEGVKCSAFQDSSFHTPSVPFIVPLSVIICPDRVGVFLDYEACTVSFFNITNHGFLIYKFSHCSFSQPVFPYLNPRKCGVPMTLCSPSS [human TRIM5α, 1-codon deletion at 332]”, the enrichment amounted to 0.511 ± 0.36.

For “MASGILVNVKEEVTCPICLELLTQPLSLDCGHSFCQACLTANHKKSMLDKGESSCPVCRISYQPENIRPNRHVANIVEKLREVKLSPEGQKVDHCARHGEKLLLFCQEDGKVICWLCERSQEHRGHHTFLTEEVAREYQVKLQAALEMLRQKQQEAEELEADIREEKASWKTQIQYDKTNVLADFEQLRDILDWEESNELQNLEKEEEDILKSLTNSETEMVQQTQSLRELISDLEHRLQGSVMELLQGVDGVIKRTENVTLKKPETFPKNQRRVFRAPDLKGMLEVFRELTDVRRYWVDVTVAPNNISCAVISEDKRQVSSPKPQIIYGAIIYGARGTRYQTFVNFNYCTGILGSQSITSGKHYWEVDVSKKTAWILGVCAGFQPDAMCNIEKNENYQPKYGYWVIGLEEGVKCSAFQDSSFHTPSVPFIVPLSVIICPDRVGVFLDYEACTVSFFNITNHGFLIYKFSHCSFSQPVFPYLNPRKCGVPMTLCSPSS [human TRIM5α, 5-codon duplication at 327]”, the enrichment was 0.787 ± 0.71. The figure for “MASGILVNVKEEVTCPICLELLTQPLSLDCGHSFCQACLTANHKKSMLDKGESSCPVCRISYQPENIRPNRHVANIVEKLREVKLSPEGQKVDHCARHGEKLLLFCQEDGKVICWLCERSQEHRGHHTFLTEEVAREYQVKLQAALEMLRQKQQEAEELEADIREEKASWKTQIQYDKTNVLADFEQLRDILDWEESNELQNLEKEEEDILKSLTNSETEMVQQTQSLRELISDLEHRLQGSVMELLQGVDGVIKRTENVTLKKPETFPKNQRRVFRAPDLKGMLEVFRELTDVRRYWVDVTVAPNNISCAVISEDKRQVSSPKPQIIYGAIYGARGTRYQTFVNFNYCTGILGSQSITSGKHYWEVDVSKKTAWILGVCAGFQPDAMCNIEKNENYQPKYGYWVIGLEEGVKCSAFQDSSFHTPSVPFIVPLSVIICPDRVGVFLDYEACTVSFFNITNHGFLIYKFSHCSFSQPVFPYLNPRKCGVPMTLCSPSS [human TRIM5α, 4-codon duplication at 328]” is 0.573 ± 0.44.
